Results on two molecules are retold here after patent US12433952B2, “Antibody-drug conjugates targeting folate receptor alpha and methods of use” (ZYMEWORKS BC INC., priority 2022, dated 2025).

Data set [1] has as its system MDA-MB-468 (breast adenocarcinoma; FRα-negative). The data set can be described thus: In vitro cytotoxicity of ADCs, 2D monolayer (CellTiter-Glo). In kind it is cell-based. As to conditions: 4 days, DAR 8, FRα-negative. How it is done:
The cell growth inhibition (cytotoxicity) capabilities of the humanized variant v30384 conjugated to various drug-linkers were assessed in a panel of FRα-expressing cell lines as described below. Cell lines used were KB—HeLa (endocervical carcinoma), JEG-3 (choriocarcinoma), T-47D (breast carcinoma) and MDA-MB-468 (breast adenocarcinoma; FRα-negative).
Briefly, cells were seeded in 384-well plates and treated with a titration of test article, generated in cell growth medium. Cells were incubated for 4 days under standard culturing conditions. After incubation, CellTiter-Glo® reagent (Promega Corporation, Madison, WI) was spiked in all wells and luminescence corresponding to ATP present in each well was measured using a Synergy™ H1 plate reader (BioTek Instruments, Winooski, VT). Based on blank wells (no test article added), % cytotoxicity values were calculated and plotted against test article concentration using GraphPad Prism 9 software (GraphPad Software, San Diego, CA).
On the technique in general: Cellular ATP, detected with luciferase, serves as a proxy for viable cell number.

Data set [2] relates to EBC-1 (lung carcinoma; FRα-negative) spheroids. As to the kind of experiment: In vitro cytotoxicity of ADCs, 3D spheroids (CellTiter-Glo 3D). It is filed as cell-based. As to conditions: EBC-1 (FRα-negative) spheroids, 6-day treatment, DAR 8. How it is done: The 3D cytotoxicity capabilities of the humanized variant v30384 conjugated to various drug-linkers as shown in Table 27.1 were assessed in a panel of FRα-expressing cell line spheroids as described below. Spheroids provide a three-dimensional organization of cells with layers of distinct cell populations and the formation of different gradients from the outer to the inner regions. Cell signaling is more complex in spheroids than in two-dimensional cell cultures. As a result of these features, spheroids have the potential to recapitulate drug resistance and metabolic adaptation.
Cell lines used were IGROV-1 (ovarian adenocarcinoma), T-47D (breast carcinoma), OVCAR-3 (ovarian adenocarcinoma), HEC-1-A (uterine adenocarcinoma) and EBC-1 (lung carcinoma; FRα-negative).
Briefly, cells were seeded in Ultra-Low Attachment 384-well plates, centrifuged and incubated under standard culturing conditions to allow for spheroid formation and growth. Monoculture cell line spheroids were then treated with a titration of test article, generated in cell growth medium. Spheroids were incubated for 6 days under standard culturing conditions. After incubation, CellTiter-Glo® 3D reagent (Promega Corporation, Madison, WI) was spiked in all wells. Plates were incubated in the dark at room temperature for 1 hour and luminescence was quantified using a BioTek Cytation 5 Cell Imaging Multi-Mode Reader (Agilent Technologies, Inc., Santa Clara, CA). Based on blank wells (no test article added), percent cytotoxicity values were calculated and plotted against test article concentration using GraphPad Prism 9 software (GraphPad Software, San Diego, CA).

A further data set has as its system OV90 xenograft. The data set can be described thus: In vivo anti-tumor activity, OV90 model study #1. Further details: species or system mouse. The note with it: OV90 study #1, 3 mg/kg single IV dose, DAR 8. How it is done: (§1) The in vivo anti-tumor activities of humanized variant v30384 conjugated to various drug-linkers were assessed in a numberofxenograft models as describedbelow.
(§2) All ADCs were DAR 8. For each xenograft study, tumor volume and body weight of the animals were measured twice weekly.
For the OV90 model studies #1 and #2, tumor cell suspensions (1×10^7 cells in 0.1 ml 50% Matrigel®) were implanted subcutaneously into female CB. 17 SCID mice. When mean tumor volume reached 100-150 mm^3, the animals were randomly assigned to groups (n=6 per group for study #1, and n=8 per group for study #2) and treated on study day 1 with a single IV dose of test article as shown in Table 28.1. Serum was collected at a number of timepoints for PK analysis.

The subject of the next data set is NCI-H2110 CDX xenograft. The data set can be described thus: In vivo anti-tumor activity, NCI-H2110 CDX model. Further details: species or system mouse. The note with it: 6 mg/kg single IV dose, DAR 8. How it is done:
as §1, §2
For the NCI-H21 10 CDX model study, tumor cell suspensions (1×10^7 cells in 0.1 ml 50% Matrigel®) were implanted subcutaneously into CB. 17 SCID mice. When mean tumor volume reached ˜140 mm^3 the animals were randomly assigned to groups (n=6 per group) and treated with a single IV dose of test article on study day 0 as shown in Table 28.1.

Data set [3] is described as follows: Pharmacokinetics of ADCs in OV90 tumor-bearing mice (total IgG ELISA). In kind it is in vivo, mouse. As to conditions: OV90 #1 model, 3 mg/kg single IV dose, total IgG in serum. How it is done:
(§3) Serum was collected from the xenograft studies described in Example 28, as noted, and analyzed for the pharmacokinetics (PK) of the ADCs as described below.
(§4) Absorbance at 450 nm was measured using a Synergy™ H1 Hybrid Multi-Mode Plate Reader (BioTek Instruments, Winooski, VT). Pharmacokinetics parameters were calculated from non-compartmental analysis using Phoenix WinNonlin™ software (Certara, Princeton, NJ).
A general note: An ELISA detects its analyte on a solid surface through an enzyme-linked reagent.

The nature of data set [4]: Pharmacokinetics of ADCs in NCI-H2110 tumor-bearing mice (total IgG ELISA). In kind it is in vivo, mouse. As to conditions: NCI-H2110 model, 6 mg/kg single IV dose, total IgG in serum. How it is done: as §3, §4
The nature of data set [5]: Murine tolerability study (Balb/c). It is filed as in vivo, mouse. The note with it: for treatment-related macroscopic changes: 60 or 200 mg/kg; for tolerability (body weight, mortality): single intraperitoneal doses of 60 and 200 mg/kg, Balb/c mice. On the procedure:
ADCs comprising humanized variant v30384 conjugated to various drug-linkers as shown in Table 30.1 were assessed for tolerability in mice at single doses of 60 and 200 mg/kg as described below.
Test articles were administered to mice (Balb/c, female, 6-8 weeks old, -20g) via 20 ml/kg intraperitoneal injections at 60 and 200 mg/kg. From each dose group, 3 mice were subject to planned observation for 3 weeks post-dose. An additional 3 mice were subject to planned observation for 1 week post-dose, followed by termination and examination of formalin-fixed, paraffin-embedded organs. Mice were euthanized if body weight fell by ≥20% from pre-dose levels. Serum collection was planned for all mice at 24 hr and 7 day post-dose for pharmacokinetic analysis.

The subject of data set [6] is FRα-negative MDA-MB-468 cells co-cultured with FRα-positive JEG-3. The data set can be described thus: Bystander activity of ADCs (mono-culture vs co-culture, flow cytometry). In kind it is cell-based. As to conditions: mono-culture viability compared with co-culture viability, 2 nM ADC, 4 days. On the procedure: The ability of the humanized variant v30384 conjugated to various drug-linkers to exert a bystander killing effect on cancer cells was assessed according to the method described below. Bystander killing most commonly occurs after target-specific uptake of an ADC into an antigen-positive cell. Trafficking and degradation of the ADC results in release of active catabolite free drug, which then crosses the cell membrane of nearby cells to elicit cell death.
FRα-positive JEG-3 and FRα-negative MDA-MB-468 cells were seeded either as mono-cultures or co-cultures in a 48-well plate at 20,000 cells and 10,000 cells, respectively, in 100 μL assay media (Minimum Essential Media supplemented with 10% Fetal Bovine Serum (both from Thermo Fisher Scientific, Waltham, MA)). ADCs were diluted to 4 nM in assay media and 100 μL was added to the cell-containing plates (2 nM final ADC concentration). Cells were incubated with ADCs for 4 days under standard culturing conditions (37° C./5% C02). Following incubation, cells were dissociated, washed, and stained using a viability dye, YO—PRO®-1 (ThermoFisher Scientific, Waltham, MA), and an anti-FRα antibody, mirvetuximab (v17716), conjugated to Alexa Fluor®647, for 20 minutes at 4° C. After incubation, cells were washed in FACS buffer (phosphate buffered saline pH 7.4 (ThermoFisher Scientific, Waltham, MA) supplemented with 2% FBS), resuspended in 70 μL FACS buffer per well, and 35 μL per well were analyzed on a BD LSRFortessa™ Cell Analyzer (BD Biosciences, Franklin Lake, NJ). Dead cells were excluded by gating on YO—PRO®-1 staining. The number of JEG-3 and MDA-MB-468 cells were determined by the number of events in the Alexa Fluor®647 positive (FRα-positive) and Alexa Fluor®647 negative (FRα-negative) gates, respectively. Percent viability was calculated as the number of cells in treatment condition divided by the number of cells in the no-treatment condition.

B1: v30384-MT-GGFG-AM-Compound 139 (conjugate)
heavy 1: EVQLLESGGGLVQPGGSLRLSCAVSGFSLSSYGVSWVRQAPGKGLEWIGAVNSGGSAYYADSVKGRSTISRDNSKNTVYLQMNSLRAEDTAVYYCARSGSGYPMDYLAIWGQGTLVTVSSASTKGPSVFPLAPSSKSTSGGTAALGCLVKDYFPEPVTVSWNSGALTSGVHTFPAVLQSSGLYSLSSVVTVPSSSLGTQTYICNVNHKPSNTKVDKKVEPKSCDKTHTCPPCPAPELLGGPSVFLFPPKPKDTLMISRTPEVTCVVVDVSHEDPEVKFNWYVDGVEVHNAKTKPREEQYNSTYRVVSVLTVLHQDWLNGKEYKCKVSNKALPAPIEKTISKAKGQPREPQVYVYPPSRDELTKNQVSLTCLVKGFYPSDIAVEWESNGQPENNYKTTPPVLDSDGSFALVSKLTVDKSRWQQGNVFSCSVMHEALHNHYTQKSLSLSPG
heavy 2: EVQLLESGGGLVQPGGSLRLSCAVSGFSLSSYGVSWVRQAPGKGLEWIGAVNSGGSAYYADSVKGRSTISRDNSKNTVYLQMNSLRAEDTAVYYCARSGSGYPMDYLAIWGQGTLVTVSSASTKGPSVFPLAPSSKSTSGGTAALGCLVKDYFPEPVTVSWNSGALTSGVHTFPAVLQSSGLYSLSSVVTVPSSSLGTQTYICNVNHKPSNTKVDKKV[human IgG1 Fc with changes not written out]
light: DYQMTQSPSSVSASVGDRVTITCRASQSIGDWLAWYQQKPGKAPKLLIYEASTLASGVPSRFSGSGSGTDFTLTISSVQPEDAATYYCQQGYGRSNVDNIFGGGTKVEVKRTVAAPSVFIFPPSDEQLKSGTASVVCLLNNFYPREAKVQWKVDNALQSGNSQESVTEQDSKDSTYSLSSTLTLSKADYEKHKVYACEVTHQGLSSPVTKSFNRGEC
Broadly, the EC50 is the concentration at which the effect is half-maximal. Turning to B1, the EC50 in data set [1] amounted to 36.7 nM; in data set [2], 23 nM. Moreover, in the data set with OV90 xenograft, the “effect on tumor growth rate” value was “superior inhibition of tumor growth rate compared to v30384-MC-GGFG-AM-DXd”. Further, in the data set with NCI-H2110 CDX xenograft, the “effect on tumor growth” value was “did not result in significant tumor growth rate inhibition”. Moreover, the Half-life in data set [3] was determined as 198 h; in data set [4] it was 57.4 h. The “treatment related microscopic findings” value in data set [5] (60 and 200 mg/kg) is “No treatment related microscopic findings”. Moreover, the treatment-related macroscopic changes result in data set [5] is listed as “No treatment-related macroscopic changes”. The “tolerability (body weight, mortality)” value in data set [5] is “well tolerated at both 60 and 200 mg/kg”. In data set [6], the “% Bystander Activity” value is 44.6%.

B2: v30384-MT-GGFG-Compound 141 (conjugate)
heavy 1: EVQLLESGGGLVQPGGSLRLSCAVSGFSLSSYGVSWVRQAPGKGLEWIGAVNSGGSAYYADSVKGRSTISRDNSKNTVYLQMNSLRAEDTAVYYCARSGSGYPMDYLAIWGQGTLVTVSSASTKGPSVFPLAPSSKSTSGGTAALGCLVKDYFPEPVTVSWNSGALTSGVHTFPAVLQSSGLYSLSSVVTVPSSSLGTQTYICNVNHKPSNTKVDKKVEPKSCDKTHTCPPCPAPELLGGPSVFLFPPKPKDTLMISRTPEVTCVVVDVSHEDPEVKFNWYVDGVEVHNAKTKPREEQYNSTYRVVSVLTVLHQDWLNGKEYKCKVSNKALPAPIEKTISKAKGQPREPQVYVYPPSRDELTKNQVSLTCLVKGFYPSDIAVEWESNGQPENNYKTTPPVLDSDGSFALVSKLTVDKSRWQQGNVFSCSVMHEALHNHYTQKSLSLSPG
heavy 2: EVQLLESGGGLVQPGGSLRLSCAVSGFSLSSYGVSWVRQAPGKGLEWIGAVNSGGSAYYADSVKGRSTISRDNSKNTVYLQMNSLRAEDTAVYYCARSGSGYPMDYLAIWGQGTLVTVSSASTKGPSVFPLAPSSKSTSGGTAALGCLVKDYFPEPVTVSWNSGALTSGVHTFPAVLQSSGLYSLSSVVTVPSSSLGTQTYICNVNHKPSNTKVDKKV[human IgG1 Fc with changes not written out]
light: DYQMTQSPSSVSASVGDRVTITCRASQSIGDWLAWYQQKPGKAPKLLIYEASTLASGVPSRFSGSGSGTDFTLTISSVQPEDAATYYCQQGYGRSNVDNIFGGGTKVEVKRTVAAPSVFIFPPSDEQLKSGTASVVCLLNNFYPREAKVQWKVDNALQSGNSQESVTEQDSKDSTYSLSSTLTLSKADYEKHKVYACEVTHQGLSSPVTKSFNRGEC
Regarding B2, the EC50 in data set [1] came out at 25.7 nM. In data set [2], the concentration giving a half-maximal response (EC50) was 22.5 nM. For the same molecule, the “effect on tumor growth rate” value with OV90 xenograft is “superior inhibition of tumor growth rate compared to v30384-MC-GGFG-AM-DXd”. Also, the Half-life in data set [3] came out at 135 h. Also, in data set [5], the treatment-related macroscopic changes entry was “No treatment-related macroscopic changes”; the “tolerability (body weight, mortality)” value was “well tolerated at both 60 and 200 mg/kg”. Moreover, the “% Bystander Activity” value in data set [6] was determined as 49.7%.
